In article PMC4336329 (PLoS ONE, 2015):
About 2,200 (0.71%) of roughly 310,000 compounds showed an effect of 50% or more. The effect is printed as a negative number. This is one part of the list.

What follows are compounds tested against human ether-à-go-go-related gene (hERG) potassium channel (human, UniProt Q12809) (assay: primary screen, population patch clamp on CHO cells stably expressing hERG).
Sequence of human ether-à-go-go-related gene (hERG) potassium channel (Q12809 whole entry, looked up): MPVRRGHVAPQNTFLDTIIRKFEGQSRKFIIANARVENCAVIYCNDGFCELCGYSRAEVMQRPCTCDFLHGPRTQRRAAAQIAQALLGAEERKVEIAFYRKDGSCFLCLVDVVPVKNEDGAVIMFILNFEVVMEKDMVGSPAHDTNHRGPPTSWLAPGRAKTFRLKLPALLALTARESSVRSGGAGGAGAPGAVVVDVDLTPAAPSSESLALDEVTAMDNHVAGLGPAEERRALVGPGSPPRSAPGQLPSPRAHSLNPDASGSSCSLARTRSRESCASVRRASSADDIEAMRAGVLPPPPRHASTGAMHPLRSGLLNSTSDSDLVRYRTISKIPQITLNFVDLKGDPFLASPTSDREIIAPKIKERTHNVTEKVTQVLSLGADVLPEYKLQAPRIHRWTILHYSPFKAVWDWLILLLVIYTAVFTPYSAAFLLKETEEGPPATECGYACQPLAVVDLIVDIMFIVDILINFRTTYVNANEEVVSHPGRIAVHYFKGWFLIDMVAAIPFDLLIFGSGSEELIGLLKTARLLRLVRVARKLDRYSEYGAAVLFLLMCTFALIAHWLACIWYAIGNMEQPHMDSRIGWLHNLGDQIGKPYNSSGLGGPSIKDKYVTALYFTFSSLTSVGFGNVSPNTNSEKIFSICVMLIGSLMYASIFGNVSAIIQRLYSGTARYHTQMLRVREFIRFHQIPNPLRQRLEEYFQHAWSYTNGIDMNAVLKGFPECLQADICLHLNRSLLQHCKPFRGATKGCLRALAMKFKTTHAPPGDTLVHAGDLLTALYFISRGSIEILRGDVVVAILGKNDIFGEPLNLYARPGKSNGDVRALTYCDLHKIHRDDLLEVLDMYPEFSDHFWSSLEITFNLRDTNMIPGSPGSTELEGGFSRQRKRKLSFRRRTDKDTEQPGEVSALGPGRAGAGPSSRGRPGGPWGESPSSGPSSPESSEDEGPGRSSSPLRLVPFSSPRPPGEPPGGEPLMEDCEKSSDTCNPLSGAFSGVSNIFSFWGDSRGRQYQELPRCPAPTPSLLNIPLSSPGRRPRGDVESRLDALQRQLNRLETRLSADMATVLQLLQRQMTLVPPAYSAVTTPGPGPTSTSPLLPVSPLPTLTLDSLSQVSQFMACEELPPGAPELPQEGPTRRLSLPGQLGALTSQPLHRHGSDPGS

Row | SMILES | hERG current change (%, negative = inhibition) at 1uM [%]
1 | COC(=O)c1ccc(CSc2nc3ccccc3c(=O)n2CC(C)C)o1 | -1.69
2 | CC1CCN(C2=NN3C(=N)/C(=C\c4ccc(OC(=O)c5ccco5)cc4)C(=O)N=C3S2)CC1 | 9.23
3 | CC(C)Oc1ccc(/C(O)=C2/C(=O)C(=O)N(CCN(C)C)C2c2cccs2)cc1 (centres unmarked) | 4.41
4 | O=NN1CCCCC1 | 9.3
5 | CN(C(=O)c1ccncc1)c1nnc(-c2cccnc2)s1 | 12.8
6 | CC#CCN1C(=O)N[C@@H](c2ccccc2)C(C(=O)OC)=C1C | 14.7
7 | COc1ccc(NC(=O)CSc2ccc(-c3cccs3)nn2)c(OC)c1 | 9.11
8 | CCOC(=O)C(=CN=C(N)Nc1nc2ccccc2o1)C(=O)OCC | 14.6
9 | O=C(NC1CC1)C1=C[C@H](c2c[nH]c3ccccc23)C[C@H](OCc2ccc(CO)cc2)O1 | 12.4
10 | CC(C)c1ccc(C2NC(=S)NC3=C2C(=O)CCC3)cc1 (centres unmarked) | 8.94
11 | CCn1cc(Cl)c(C(=O)Nc2ccc3c(c2)OCCO3)n1 | -13.4
12 | O=c1c2ccccc2nc(-c2ccc(Br)cc2)n1Cc1ccccc1 | 0.689
13 | CCOc1ccc(Oc2c(/C=N/NC(=O)C3CC3)c(C)nn2-c2ccccc2)cc1 | 9.94
14 | CC(C)(C)n1nnnc1C(c1cccc(C#N)c1)N1CCC(Cc2ccccc2)CC1 (centres unmarked) | 5.25
15 | CC(=O)N1c2ccc(S(=O)(=O)N3CCCCC3)cc2CC1C (centres unmarked) | 11.4
16 | COc1cc2c(cc1OC)C(c1cccs1)N(C(=O)c1ccncc1)CC2 (centres unmarked) | 1.08
17 | Cc1ccc(-n2c(C)cc(/C=C3\NC(=O)NC3=O)c2C)c(C)c1 | 10.4
18 | Cn1c(CN2CCOCC2)c(C#N)c2ccccc21 | 5.66
19 | COc1ccc(-c2cn[nH]c2-c2ccc(OCc3ccccc3)cc2O)cc1OC | 13.5

Row | SMILES | hERG current change (%, negative = inhibition) at 1uM [%]
20 | Cc1cc(C)nc(NS(=O)(=O)c2ccc(NC(=O)c3ccccc3[N+](=O)[O-])cc2)n1 | 10.6
21 | CCC(C)[C@H](NC(=O)NCc1cccc(OC)c1)C(=O)O (some centres unmarked) | 4.23
22 | COc1ccc(NC(=O)c2cccc(NC(=O)C(C)C)c2)c([N+](=O)[O-])c1 | 10.6
23 | O=C(CN1C(=O)NC(c2ccccc2)(c2ccccc2)C1=O)NCc1ccccc1 | -8.3
24 | Cc1[nH]nc2c1[C@@H](c1ccccc1[N+](=O)[O-])C(C#N)=C(N)O2 | 10.8
25 | CCC(=O)Nc1ccc2oc(-c3cccc(C)c3)nc2c1 | -2.52
26 | Cc1ccc(C(=O)C2CCN(C(=S)NCC3CCCO3)CC2)cc1 (centres unmarked) | 17.4
27 | NS(=O)(=O)c1ccc(NC(=O)COC(=O)c2ccc(Cl)cc2[N+](=O)[O-])cc1 | 9.62
28 | Cc1ccc(S(=O)(=O)N(CC(=O)N2CCC(C)CC2)c2ccccc2)cc1 | 8.52
29 | O=C(c1cc2c(s1)CCCC2)n1cccn1 | 0.571
30 | CCCCOc1ccc(Cl)cc1CSc1nncn1N | 9.02
31 | Cc1c(NC(=S)NC(=O)c2ccco2)c(=O)n(-c2ccccc2)n1C | 9.63
32 | O=c1[nH]cnc2ncc(-c3ccc(O)cc3)nc12 | 8.88
33 | Cc1nc(SCC(=O)Nc2c(C)n(C)n(-c3ccccc3)c2=O)[nH]c(=O)c1C | 8.86
34 | COc1ccc(C(=O)NC(=S)Nc2cccnc2)cc1Cl | 1.37
35 | CCOC(=O)c1cccc(NC(=O)c2cncc(Br)c2)c1 | 4.47
36 | Cc1ccc(C)c(C(C)NC(=O)Cc2cccs2)c1 (centres unmarked) | 15.1
37 | CCc1ccc(NC(=O)C2CCCN2S(=O)(=O)c2ccc3c(c2)n(C)c(=O)c(=O)n3C)cc1 (centres unmarked) | -8.19
38 | COc1ccc(-n2nc(C(=O)NCC(=O)N3CCN(c4ccccn4)CC3)c3ccccc3c2=O)cc1OC | 6.89

Row | SMILES | hERG current change (%, negative = inhibition) at 1uM [%]
39 | C=CCn1c(CSCc2ccc(C)cc2)nnc1SCC(=O)NCc1ccccc1 | -4.88
40 | O=C(Cc1ccc([N+](=O)[O-])cc1)N/N=C/c1ccc([N+](=O)[O-])o1 | -17.3
41 | CC1(C)C(=O)NCCN1C(=O)CSc1nccc(-c2ccc(Br)cc2)n1 | 0.619
42 | CN(C)Cc1nc2ccccc2c(=O)n1CC(=O)Nc1cccc(S(=O)(=O)N2CCOCC2)c1 | 1.05
43 | O=C(NC1CC1)C1CCN(C(=O)c2ccc(Cl)cc2Cl)CC1 | 12.9
44 | COc1ccc(C(=O)Oc2ccc(=O)n(-c3ccccc3)n2)cc1 | 11.1
45 | CCOC(=O)N1CCN(C(=O)c2cccc(N3C(=O)NC4CC3(C)Oc3ccc(Cl)cc34)c2)CC1 (centres unmarked) | 13.3
46 | O=C(COc1ccc(Cl)cc1)N1CCN(Cc2ccc3c(c2)OCO3)CC1 | -6.58
47 | O=C(C1CC(=O)N(C2CCCC2)C1)N1CCN(c2cccc(Cl)c2)CC1 (centres unmarked) | 8.02
48 | CC(NC(=O)C(=O)N1CCCCC1)C(c1cccs1)N1CCN(c2ccc(F)cc2)CC1 (centres unmarked) | 14.7
49 | O=C(NCC(O)c1ccc2ccccc2c1)c1c(F)cccc1F (centres unmarked) | 15.5
50 | Cc1ccc(SCCN)cc1C.Cl | 20.3
51 | CN(Cc1ccccc1)S(=O)(=O)c1ccccc1[N+](=O)[O-] | 11.3
52 | Cn1nccc1NC(=O)Nc1cccc([N+](=O)[O-])c1 | 8.43
53 | COc1cc(-c2cc(-c3nnco3)c3ccccc3n2)cc(OC)c1OC | 10.1
54 | CCOC(=O)CNC(=S)N(CCCN1CCCC1)Cc1cccs1 | -9.92
55 | CCn1c(=O)cc(OCC(=O)NC2CC2)c2ccccc21 | 9.55
56 | CCOC(=O)C1CCN(C(=O)CN(c2cccc(C(F)(F)F)c2)S(C)(=O)=O)CC1 | 3.22
